In PubChem BioAssay AID504832 (National Center for Advancing Translational Sciences (NCATS), 2011):
Screen size: about 310,000 compounds; about 18,000 (5.8%) were called active. Inconclusive means that the source gave no clear call. Such entries were picked first, then a sample of the others. Calls come from the whole dose curve; as a rule, active = well fitted inhibition curve with a large enough effect; inconclusive = small, poorly fitted or top-dose-only effect, or another doubt; inactive = no such curve, though single readings can be large or run the other way. No potency is given beside an inconclusive call; the fits are too rough.

Experiment: Primary qHTS for delayed death inhibitors of the malarial parasite plastid, 48 hour incubation
Conditions: P. falciparum luciferase growth in erythrocytes; series mostly up to 28.7 µM
How it was run: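 Here the parasites carry a stable luciferase gene and grow inside erythrocytes in Albumax-based RPMI medium with compound for one erythrocytic cycle. Activity is scored as loss of luminescent signal.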
Potency is the fitted concentration of half-maximal effect; tags give direction and shape of the fitted curve.

Compound	Potency
COc1cccc(OC)c1C(=O)Nc1nnc(-c2cccs2)s1	inactive
COc1cccc(NC(=O)CN(C)C(=O)c2cc(C3CC3)nn2-c2ccccc2)c1	inconclusive [inhibitor, single point]
CCC1CCCCN1C(=O)COC(=O)c1cc(C)nc2ccccc12 (stereo not drawn)	inconclusive [inhibitor, partial curve, poor fit]
C[C@H](NC(=O)c1cc2c(cn1)[nH]c1ccccc12)C(=O)O	inconclusive [inhibitor, full curve, poor fit]
Cn1c(=O)n(CCc2ccccc2)c2ccccc21	inactive
CN1CCN(c2nc(-c3cccnc3)nc3ccccc23)CC1	inconclusive [inhibitor, full curve, poor fit]
CC(Sc1nnc2c(n1)[nH]c1ccccc12)C(=O)NC1CCCCC1 (stereo not drawn)	active: 9.28 µM
Cc1ccccc1OCCC(=O)Nc1ccc(S(=O)(=O)N(C)C2CCN(C)CC2)cc1	active: 2.94 µM
Cc1csc(=O)n1CCC(=O)OCC(=O)Nc1ncc(Cl)cc1Cl	inactive
CCOC(=O)C1(CCOc2ccccc2)CCN(Cc2cc(OC)c(O)cc2Cl)CC1	inconclusive [inhibitor, partial curve]
COc1cccc(NC(=O)CN(C)C(=O)C(C)Sc2ccccc2)c1 (stereo not drawn)	inconclusive [inhibitor, partial curve, poor fit]
COc1ccc(S(=O)(=O)Nc2nc3c(s2)CCCC3)cc1	inconclusive [inhibitor, full curve, poor fit]
O=C(NCc1ccccc1C(F)(F)F)C1CC(c2ccccc2[N+](=O)[O-])=NO1 (stereo not drawn)	inactive
NC(=O)Cn1cc(C(=O)c2ccccc2)c2ccccc21	inconclusive [inhibitor, partial curve, poor fit]
CC(C)(C)c1ccc(C(=O)NCc2ccc(Cl)cc2)cc1	inconclusive [inhibitor, partial curve]
C[C@]12CC[C@@H]3c4ccc(O)cc4CC[C@H]3[C@@H]1CC[C@@H]2OC(=O)CCC(=O)O	inactive
O/N=C/c1ccc(OCc2ccccc2)c(Cl)c1	inactive
CCOC(=O)[C@H]1[C@H]2COc3ccc(Cl)cc3[C@@H]2N2C(=O)c3cc(OC)ccc3NC(=O)[C@@]12C	inconclusive [inhibitor, single point]
CSc1nc2nc(-c3ccc(F)cc3)c(CCN3CCN(C)CC3)cn2n1	inconclusive [inhibitor, single point]
OCC1CCCN(Cc2ccc(-c3ccccc3)cc2)C1 (stereo not drawn)	inactive
O=C1/C(=C/c2ccco2)SC(=S)N1C1CCS(=O)(=O)C1 (stereo not drawn)	inconclusive [inhibitor, single point]
Cc1cccc(-c2nn(-c3ccccc3)cc2C(=O)NCC(c2cccs2)N2CCOCC2)c1 (stereo not drawn)	active: 13.1 µM

Compound	Potency
O=C(NC1CCCCCCC1)c1ccc(CNc2c(N3CCOCC3)c(=O)c2=O)cc1	inconclusive [inhibitor, partial curve, poor fit]
COc1ccc(N(CC(=O)NC2CCCC2)C(=O)Cn2nnc(-c3ccc(OC)c(OC)c3)n2)c(OC)c1	inconclusive [inhibitor, partial curve, poor fit]
CCCn1c(SCC(=O)N(CC)CC)nnc1-c1ccncc1	inactive
COc1ccc(Nc2nc(-c3ccc(OC)cc3)c(CCC(=O)O)s2)cc1	inactive
CC(C)C1N=C(c2ccc3c(c2)OCO3)CC(c2ccccc2O)N1 (stereo not drawn)	inconclusive [inhibitor, single point]
CCOC(=O)C1=C(C)NC(C)=C(C(=O)OCC)C1/C=C/c1ccccc1	inconclusive [inhibitor, partial curve]
Cc1cc(NC(=O)CCC(=O)N(c2ccc(F)cc2)C(C(=O)NC2CCCC2)c2ccccc2)no1 (stereo not drawn)	inconclusive [inhibitor, partial curve, poor fit]
COc1ccccc1N1CCN(C2CCCN(C(=O)CCc3cnn(C)c3)C2)CC1 (stereo not drawn)	inactive
COc1ccccc1[C@@H]1C(c2cccc(Cl)c2)=NN(c2ccccc2)[C@H]1C(=O)N1CCOC1=O	active: 14.7 µM
O=S(=O)(NCCN1CCOCC1)c1ccc(-c2ccc(S(=O)(=O)NCCN3CCOCC3)cc2)cc1	inconclusive [inhibitor, partial curve, poor fit]
COC(=O)c1ccccc1-n1c(CCC(=O)O)ccc1-c1ccccc1	inactive
COc1ccc(C2(c3ccc(OC)cc3)NC(=O)N(CC(=O)Nc3ccc(N4CCOCC4)cc3)C2=O)cc1	inconclusive [inhibitor, single point]
CC(C)CC(C(=O)Nc1oc(-c2ccco2)c(-c2ccco2)c1C#N)N1C(=O)c2ccccc2C1=O (stereo not drawn)	inconclusive [inhibitor, partial curve, poor fit]
O=S(=O)(c1ccc(OCC(O)CN2CCC(Cc3ccccc3)CC2)cc1)N1CCOCC1 (stereo not drawn)	active: 11.7 µM
CC1C(=O)C(=O)C=CN1C (stereo not drawn)	inconclusive [inhibitor, single point]
Cc1ccc(C)c(-c2csc(N/N=C/c3ccco3)n2)c1	inconclusive [inhibitor, partial curve]
CC(=O)N(CCC(c1ccccc1)c1ccco1)Cc1cccs1 (stereo not drawn)	inactive
CCn1c(SCC(=O)Nc2ccccc2-c2ccccc2)nnc1-c1ccoc1C	inconclusive [inhibitor, partial curve]
C/C=C(\C)C(=O)N1CC2(CC(c3cccc(NC(=O)CC(c4ccccc4)c4ccccc4)c3)=NO2)C[C@H]1C(N)=O (stereo partly drawn)	inconclusive [inhibitor, single point]
COCCN(C(=O)CCC(=O)Nc1nccs1)C(C(=O)NCCC(C)C)c1ccc(OC)cc1 (stereo not drawn)	inconclusive [inhibitor, single point]
O=C(Cc1cccc2ccccc12)Nc1ccc(OC(F)F)c(Cl)c1	inconclusive [inhibitor, single point]
